Reference: PubChem BioAssay AID493208 (National Center for Advancing Translational Sciences (NCATS), 2011)
Screen size: about 44,000 compounds; about 340 (0.77%) were called active. Inconclusive results (about 5%) are left out. Calls come from the whole dose curve; as a rule, active = well fitted inhibition curve with a large enough effect; inconclusive = small, poorly fitted or top-dose-only effect; inactive = flat fitted curve, though single readings scatter. The list shows a part of the results.

assay: Acumen qHTS Assay for Inhibitors of the mTORC1 Signaling Pathway in MEF (Tsc2-/-, p53-/-) Cells: Sytravon; settings: phospho-rpS6 immunofluorescence/PI, 24 h; series mostly up to 38.3 µM; activity change, negative = inhibition: at the top concentration; note: nearly all actives have a fitted effect of over 50% in size
Source text: NIH Molecular Libraries Probe Production Centers Network [MLPCN] NIH Chemical Genomics Center [NCGC] MLPCN Grant: NS059428-01 Assay Submitter (PI): Blenis, John; Hoffman, Greg; Harvard University NCGC Assay Overview: The mammalian target of rapamycin (mTOR) is an intracellular serine/threonine kinase Aberrant regulation of mTOR signaling plays a causative role in a number of human diseases, including cancer, benign tumors such as lymphangioleiomyomatosis (LAM) and Tuberous Sclerosis Complex (TSC), and metabolic diseases such as diabetes and obesity. This project aims to identify inhibitors of ribosomal protein S6 (rpS6) phosphorylation. The phosphorylation of rpS6 is a key event downstream of mTOR activation. The assay uses a phospho-specific antibody of phospho-rpS6 to detect inhibitors of mTOR activation. Mutations in the Tsc1 and Tsc2 genes are the underlying genetic lesions responsible for TSC, causing constitutive activation of the mTORC1 pathway and leading to profound effects on cell metabolism. Aberrant metabolism in cancer has recently received significant attention as a target to develop therapeutic agents in the treatment of cancer.1 As Tsc2-/- cells have lost the ability to respond to energy and growth factor deprivation, these cells are unable to properly down regulate cellular biosynthetic processes in response to metabolic stress, and are thus extremely sensitive to glucose deprivation-induced death.2 A central goal of this project is to explore the unique cell survival and metabolic properties of cells with Tsc1 or Tsc2 by screening for compounds that selectively target the Tsc2-/- MEFs by screening both Tsc2-/- and WT MEF cell lines. We hope to better understand these aspects of TSC physiology in order to exploit them for therapeutic benefit.
NCGC Acumen Assay Protocol Summary: For quantitative high throughput analysis of mTORC1 signaling, we developed a cell-based assay for immuno-fluorescence based detection of rpS6 phosphorylation on the Acumen Explorer that will be used a platform for the primary small molecule screen. Mouse embryonic fibroblasts (MEFs) are cultured in 1536-well plates using DMEM + 10% FBS. Twenty-four hrs after plating, test compounds (solubilized in DMSO) are delivered and incubated with the cells for 24 hrs at 37 degree Celsius. Following the incubation, media with compound is aspirated and the cells are fixed in 4% paraformaldehyde (PFA) containing PBS + 0.2% TX-100. Next, PFA is aspirated, cells are washed two times with PBS plus 0.2% TX-100 and the cells are blocked for 1 hr at room temperature (blocking buffer: LiCOR Blocking Buffer plus 0.2% TX-100). […] Cells are washed two times with PBS plus 0.2% TX-100, and stained with 10 uM propidium iodide (PI) for 20-25 minutes for cell number measurement (1:500 dilution of Hoescht staining is also added for IN Cell imaging). The plates are scanned on the Acumen Explorer laser scanning instrument (TTP Labtech) using the 488nm laser for simultaneous excitation of the Alexa-488 and PI. […] The normalized phospho-S6 staining is calculated as the ratio of the integrated Alexa 488 intensity divided by the integrated PI intensity for the single concentration rapamycin control (7.5 nM) and DMSO columns. […] Inhibition of the pathway is defined based on the normalized phospho-S6 intensity in rapamycin treated cells. Active cells are defined as those with a normalized phospho-S6 staining above this threshold, and each treatment is reported as the % positive cells in the well, where thresholds are defined by selecting wells with the highest and lowest signal and differentiating between the % non-active and % active populations. In addition to the pathway specific phospho-S6 endpoint, the number of PI stained cells from the Acumen is recorded as a measure of cell viability. The primary screen was performed with a MEF cell line in a defined genetic background, Tsc2-/-, p53-/- cell line stably transfected with an empty vector control (Tsc2-/- MEF).

Activity change, negative = inhibition, inactive:
O=C(CN1C(=O)COc2ccc(S(=O)(=O)Nc3ccccc3)cc21)NCc1ccccc1Cl 0.24%
CCN(CC)S(=O)(=O)c1ccc(C(=O)NC2CC(=O)N(c3ccc4c(c3)OCCO4)C2)cc1 (centres undefined) 1.14%
CCOC(=O)c1c(S(=O)(=O)N2CCC(C(=O)Nc3cccc(C#N)c3)CC2)c(C)n(C)c1C -0.658%
Cc1c(C(=O)OC2CCCCCC2)[nH]c2c1C(=O)CC(c1ccccc1Cl)C2 (centres undefined) -24.5%
COc1ccc(CCNc2nc(SCc3ccccc3Cl)nc3ccccc23)cc1OC 3.12%
COc1ccc(NC(=O)Cn2c(=O)n(CCc3ccccc3)c(=O)c3sc4ccccc4c32)cc1 -10.2%
Cc1cc(C)nc(-n2nc(C)c3c2NC(=O)CC3c2ccccc2OC(C)C)n1 (centres undefined) -2.36%
O=C(CSc1nc2c(c(=O)[nH]1)CN(Cc1ccc(F)cc1)CC2)Nc1cccc(C(F)(F)F)c1 -1.35%
CCCCC(=O)NC1(C(F)(F)F)C(=O)Nc2c1c(=O)[nH]c(=O)n2-c1ccc(F)cc1 (centres undefined) -9.74%
Cc1ccc(C)c(NC(=O)C2CCCN(S(=O)(=O)c3cccc4nsnc34)C2)c1 (centres undefined) 3.44%
COc1cc(Cl)c(NS(=O)(=O)c2ccc3[nH]c(=O)ccc3c2)c(OC)c1 1.52%
CCC1CCCCN1C(=O)Cn1c(=O)n(-c2ccccc2C(F)(F)F)c(=O)c2c(C)c(C(=O)N(C)C)sc21 (centres undefined) -1.09%
CCOc1ccc(NC(=O)C(CC)n2nc(-c3ccc(C)c(C)c3)ccc2=O)cc1 (centres undefined) -0.201%
CCOc1ccc(OCC)c(NC(=O)CN(c2ccc(C)cc2)S(=O)(=O)c2c(C)n[nH]c2C)c1 -2.05%
COc1ccc(C2CC(=O)c3c([nH]c(C(=O)OC4CCCC4)c3C)C2)cc1OC (centres undefined) 1.45%
COc1ccccc1N1CCN(C(c2ccccc2)c2nnc(-c3ccccc3Cl)o2)CC1 (centres undefined) -7.87%
Cc1ccc(NC(=O)Cn2c(=O)n(Cc3nc(-c4ccccc4)no3)c(=O)c3cc4c(cc32)OCO4)cc1C -0.84%
O=C(c1ccc2c(c1)N(Cc1ccccc1F)C(=O)c1ccccc1S2(=O)=O)N1CCCCCC1 -3.44%
CCCNC(=O)c1cc2n(n1)CCCN(Cc1ccc(F)cc1)C2=O -6.44%
COc1cccc(C(=O)c2sc(Nc3ccc(C)cc3C)c(S(=O)(=O)c3ccccc3)c2N)c1 1.51%
CCOc1ccc(CCNC(=O)c2ccc(Cn3c(=O)c4cccn4c4cccnc43)cc2)cc1 -4.12%
COc1ccc(-c2csc3ncnc(Nc4ccc(OC)c(OC)c4)c23)cc1 0%
CCOC(=O)c1sc(N2C(=O)c3oc4ccc(F)cc4c(=O)c3C2c2cccc(OC)c2)nc1C (centres undefined) -3.18%
Cc1cc(N2CCCCC2)nc2ccc(NC(=O)CCC(=O)N3CCN(c4cccc(Cl)c4)CC3)cc12 -7.75%
